Experimental data: PubChem BioAssay AID463173 (ICCB-Longwood Screening Facility, Harvard Medical School, 2010)
In all, about 52,000 compounds went through this assay and about 4,300 (8.3%) were called active. No stated cut-off is given here; in the data, active means survival mostly below about 52% (no sharp cut-off); inactive means mostly above about 56%. This is one part of the list.

The molecules below were run on DeltatarO mutant (assay: growth inhibition of S. aureus wild type versus tarO mutant, primary screen, teichoic acid synthesis inhibitors, RN4220, OD600 (AID 463173)). Details: OD600, 18 h, stronger effect = lower value, screened at 18.75 µg/mL (by protocol).

| SMILES | survival |
| --- | --- |
| COc1ccc(C(=O)Nc2nccs2)cc1OC | inactive: 79% |
| Cc1ccc(NC(=O)C(C)Sc2nnc(C3CCCCC3)n2C)cc1 (centres undefined) | inactive: 109% |
| CC(=O)Nc1cccc(-c2nnc(SCC(=O)c3cc([N+](=O)[O-])ccc3Br)o2)c1 | inactive: 91% |
| COc1cc(C(c2c(C)[nH][nH]c2=O)c2c(C)[nH][nH]c2=O)ccc1OC(=O)c1ccccc1F | inactive: 68% |
| S=c1[nH]nc(Cc2ccccc2)n1Cc1ccco1 | inactive: 92% |
| CCCN1CCN(CCCNC(=O)c2cnn(-c3ccc(C)cc3)c2-n2cccc2)CC1 | inactive: 117% |
| CC(=O)c1cccc(Nc2c3c(nc4nc(-c5cccs5)nn24)CCCC3)c1 | inactive: 95% |
| Cc1ccc(C(=O)Oc2ccc(/C=N/NC(N)=O)cc2)cc1 | inactive: 91% |
| O=C(O)/C=C/C(=O)N1CCC(C(=O)c2ccc(F)cc2)CC1 | inactive: 97% |
| CCc1cccc(NC(=O)c2c(C)oc3ncnc(N4CCCCC4)c23)c1 | inactive: 54% |
| CCOC(=O)c1c(NC(=O)c2cc3nc(-c4ccc(OC)cc4)cc(C(F)(F)F)n3n2)sc(C)c1C | inactive: 131% |
| O=C1CN(C(=O)COc2ccc(Cl)cc2Cl)C(c2ccc(F)cc2)c2cc(F)ccc2N1 (centres undefined) | active: 47% |
| COc1ccc(C(=O)c2oc3ccccc3c2NC(=O)c2nc(SC)ncc2Cl)cc1Cl | inactive: 83% |
| O=C(Nc1ccc2nc(C3CC3)n(Cc3ccccc3)c(=O)c2c1)C1CC1 | inactive: 80% |
| Cc1ccc2c(c1)c1c(c(=O)n(-c3cccc(Cl)c3)c(=O)n1C)n2C | inactive: 85% |
| CCSc1ncc(Cl)c(C(=O)Nc2sc(C(C)=O)c(C)c2C(=O)OC)n1 | inactive: 72% |
| COc1cc(OC)c(NC(=O)c2cnc(N3CCCC3)nc2C)cc1Cl | inactive: 90% |
| COc1ccc(CNC(=O)c2ccc(Sc3ccc(Cl)cc3)c(NC(C)=O)c2)c(OC)c1 | inactive: 67% |
| Cc1ccc(NC(=O)N2CCN(c3nnc(C)c4c(C)n(-c5ccccc5)nc34)CC2)c(Cl)c1 | inactive: 97% |
| CCOc1ccc(-c2cccc(NS(=O)(=O)c3ccc(Cl)s3)c2)nn1 | inactive: 92% |

| SMILES | survival |
| --- | --- |
| CCNc1nc(Oc2ccc(OCC(=O)OC)nn2)nc(N2CCOCC2)n1 | inactive: 72% |
| CCc1ccccc1NC(=O)CCCN1C(=O)COc2ccc(C)cc21 | inactive: 68% |
| CCOc1ccc2nc(N3CCCC(C(=O)NCc4ccc(OC)cc4)C3)sc2c1 (centres undefined) | inactive: 96% |
| CCOC(=O)N1CCc2c(sc(NCc3cccs3)c2C(=O)Nc2cc(OC)ccc2OC)C1 | inactive: 90% |
| CCOC(=O)c1nnn(C(CC)C(=O)Nc2c(C)cccc2C)c1C(=O)OCC (centres undefined) | inactive: 100% |
| CC(C)c1ccc(Nc2cc(C(=O)NCc3cccs3)c3ccccc3n2)cc1 | inactive: 93% |
| CC(C)CNC(=O)C1CCN(c2ccc(S(=O)(=O)N3CCOCC3)cc2)CC1 | inactive: 75% |
| CCN(CC)C(=O)CSc1nnc2[nH]c(=O)cc(C)n12 | inactive: 78% |
| COc1ccc(CCNC(=O)Cn2c(-c3cccs3)cc3cc(F)ccc32)cc1OC | inactive: 83% |
| COc1ccc(CCNC(=O)CN2C(=O)COc3ccccc32)cc1OC | inactive: 126% |
| COc1cccc(CNC(=O)c2ccc(CS(=O)c3ccccc3)o2)c1 (centres undefined) | inactive: 120% |
| CN(C1CCCCC1)S(=O)(=O)c1ccc(S(=O)(=O)N(Cc2cccs2)CC2CCCO2)cc1 (centres undefined) | inactive: 59% |
| COc1ccc(NC(=O)c2oc3ccccc3c2NC(=O)c2cc(OC)c(OC)c(OC)c2)cc1 | inactive: 107% |
| COc1ccc(NC(=O)c2c(C)oc3ccc(O)c(CN4CCCC(C)C4)c23)cc1 (centres undefined) | inactive: 87% |
| Cc1cccc(Oc2nc3c(c(=O)n(C)c(=O)n3C)n2C)c1C | inactive: 84% |
| CC(C(=O)Nc1cccc(N)c1)n1nnc2ccccc21 (centres undefined) | inactive: 65% |
| CCc1ccccc1NC(=O)C(CCSC)NS(=O)(=O)c1ccc2c(c1)oc(=O)n2C (centres undefined) | inactive: 102% |
| CCOC(=O)N1CCN(C(=O)c2cnn(-c3cccc(F)c3)c2-n2cccc2)CC1 | inactive: 102% |
| N#Cc1c(-c2ccccc2)cc(-c2ccccc2)nc1SCC(=O)Nc1ccc(Cl)cc1 | inactive: 127% |
| COc1cc(Cl)c(C)cc1NC(=O)NC1COc2ccccc2C1 (centres undefined) | inactive: 72% |

| SMILES | survival |
| --- | --- |
| Clc1ccc(NCCC2=CCCCC2)nn1 | inactive: 84% |
| CCn1cc(CNC(=O)CCCSc2nc(-c3ccco3)cc(C(F)(F)F)n2)cn1 | inactive: 74% |
| CCc1ccc(-c2ccc3nnc(SCC(=O)Nc4cccc(C(C)=O)c4)n3n2)cc1 | inactive: 76% |
| Cc1cccc(N(CC(=O)N2CCCC2)S(C)(=O)=O)c1 | inactive: 72% |
| COc1cc(NS(=O)(=O)c2cccs2)cc(OC)c1 | inactive: 45% |
| Cc1cc(C)c(OCC(=O)Nc2cccc(-c3nc4ncccc4o3)c2)c(Br)c1 | active: 4% |
| CC1(C)C2CCC(C2)C1(C)NC(=O)CNCc1ccco1 (centres undefined) | inactive: 96% |
| Oc1c(C(c2ccc(Cl)cc2)N2CCOCC2)sc2nc(-c3ccco3)nn12 (centres undefined) | inactive: 112% |
| CC1CCN(S(=O)(=O)c2ccc3nc(N4CCN(c5ccccc5)CC4)ccc3c2)CC1 | inactive: 78% |
| Fc1cccc(CSc2nc(NCCc3ccccc3)c3ccccc3n2)c1 | active: 20% |
| COc1ccccc1OCC(=O)Nc1cc(-c2ccc(C)cc2)no1 | inactive: 66% |
| COc1ccc(N2CCN(C(=O)c3nn(C)c4c3CSc3ccccc3-4)CC2)cc1 | inactive: 84% |
| CCCN(C(=O)NCc1noc2ccc(C)cc12)c1ccc(Cl)c(Cl)c1 | inactive: 46% |
| CCc1ccc(C(=O)c2cn(CC(=O)Nc3ccc(OC)c(Cl)c3)c3nc(C)ccc3c2=O)cc1 | inactive: 105% |
| Cc1ccc(Cl)cc1NC(=O)Cn1cc(S(=O)(=O)Cc2ccccc2Cl)c2ccccc21 | inactive: 95% |
| CCC(=O)Nc1ccccc1-c1nc2ccccc2n(CC(=O)c2ccc(Br)cc2)c1=O | active: 29% |
| CC(C)N1CCNCC1 | inactive: 97% |
| Cc1ccc(CSc2ncccc2C(=O)O)cc1 | inactive: 87% |
| Cc1ccc(S(=O)(=O)N2CCCc3cc(NC(=O)c4ccc(C(C)(C)C)cc4)ccc32)cc1 | inactive: 112% |
